Assay results reported in PubChem BioAssay AID1030 (National Center for Advancing Translational Sciences (NCATS), 2008).
Several values for one entry are separate records, joined by “and”; a condition that tells them apart may be missing. Identical values can stand only once. Hit rate of the full screen: of about 220,000 compounds, about 16,000 (7.3%) were called active. The inconclusive results got no clear call from the source; some entries with a clear call stand among them for comparison. The call rests on the fitted dose curve; in most records, active means well fitted inhibition curve with a large enough effect (not every such curve was filed as active); inconclusive means small, poorly fitted or top-dose-only effect, or another doubt; inactive means no such curve, though single readings can be large or run the other way. Potencies beside an inconclusive call are fits to weak or partial responses and may not hold up.

Target: Aldehyde dehydrogenase 1A1 (Homo sapiens) (UniProt P00352)
Assay: qHTS Assay for Inhibitors of Aldehyde Dehydrogenase 1 (ALDH1A1);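 on activity, negative = inhibition: plate controls were no enzyme wells and a reference inhibitor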
Conditions: Purified ALDH1A1, NADH fluorescence, propionaldehyde substrate; series mostly up to 75.3 µM
Potency means the concentration at half of the fitted maximal effect; tags describe the fitted curve by direction and shape.

UniProt P00352, sequence (P00352 whole entry, looked up): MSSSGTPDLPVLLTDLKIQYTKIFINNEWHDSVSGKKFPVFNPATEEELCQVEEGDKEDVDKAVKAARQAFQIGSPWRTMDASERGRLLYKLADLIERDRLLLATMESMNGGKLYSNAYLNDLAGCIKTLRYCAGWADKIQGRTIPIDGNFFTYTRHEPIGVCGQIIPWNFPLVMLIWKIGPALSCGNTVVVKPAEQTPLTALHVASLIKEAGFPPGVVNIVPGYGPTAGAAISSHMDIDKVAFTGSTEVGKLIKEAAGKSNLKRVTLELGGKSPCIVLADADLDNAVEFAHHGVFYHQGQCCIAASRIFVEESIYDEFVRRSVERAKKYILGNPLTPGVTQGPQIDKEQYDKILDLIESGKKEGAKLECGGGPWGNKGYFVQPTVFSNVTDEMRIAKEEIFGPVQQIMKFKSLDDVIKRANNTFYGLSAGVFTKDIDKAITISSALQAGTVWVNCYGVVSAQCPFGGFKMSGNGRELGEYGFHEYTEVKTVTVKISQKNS

SMILES | activity, negative = inhibition | Potency
COC(OC)[C@@H](C)[C@H](OC)[C@@H](C)[C@H](OC)c1ccccc1 | inactive: -1.06% [at 13.5 µM] | 
Cc1cc(Nc2ccc(Cl)cc2)n2nnnc2n1 |  | inconclusive: 28.2 µM [inhibitor, partial curve]
Cc1cc(=O)oc2cc(O)ccc12 |  | inconclusive: 15.8 µM [inhibitor, single point]
CN(C)c1ccc(CNC(=O)C2CCN(S(=O)(=O)c3ccc4c(c3)CCC(=O)N4)CC2)cc1 |  | active: 17.8 µM
CNC(=O)c1cc2c(cn1)[nH]c1ccccc12 |  | inconclusive: 28.2 µM [inhibitor, partial curve] and inconclusive: 39.8 µM [inhibitor, single point] and inconclusive: 35.5 µM [inhibitor, single point]
N#C/C(=C\c1cccc(NC(=O)c2ccccc2Cl)c1)C(=O)NCCc1ccccc1 |  | active: 25.1 µM
COc1ccc(NC(=O)/C=C/c2ccc(Cl)cc2)cc1 |  | inconclusive: 35.5 µM [inhibitor, single point]
CCOC(=O)C1=C(C)N(CC)C(=S)NC1c1ccccc1OC(F)F (stereo not drawn) |  | inconclusive: 18.9 µM [inhibitor, single point]
CCN(CC)CCCNC(=O)Cn1nc([N+](=O)[O-])c(Cl)c1C |  | inactive
O=C(CN1CCN(c2ncc(C(F)(F)F)cc2Cl)CC1)N1CCN(c2ncc(C(F)(F)F)cc2Cl)CC1 |  | active: 3.98 µM
CSc1nc2ccc(NS(=O)(=O)c3cccc(Cl)c3Cl)cc2s1 |  | inconclusive: 39.8 µM [inhibitor, single point]
COc1ccccc1-c1cc(C2CC2)nc(N)c1C#N |  | inconclusive: 39.8 µM [inhibitor, single point]
COc1ccc(CNc2nc3nc(-c4ccccc4)cc(=O)n3[nH]2)cc1OC |  | inconclusive: 39.8 µM [inhibitor, single point]
CCCNC(=O)c1cc2c3ccccc3n(C)c2s1 |  | inconclusive: 25.1 µM [inhibitor, partial curve]
Cc1ccc(S(=O)(=O)N/N=C\c2cc([N+](=O)[O-])ccc2Cl)cc1 |  | inconclusive: 0.631 µM [inhibitor, full curve]
CC1CCCN(C(=O)COc2ccc(Nc3ccccc3)cc2)C1 (stereo not drawn) |  | active: 28.2 µM
O=C(CC1C(=O)NCCN1CC1CCCCC1)NCc1ccc(F)cc1 (stereo not drawn) |  | inconclusive: 39.8 µM [inhibitor, single point]
Cc1ccc(-c2noc(CCC(=O)NCc3ccco3)n2)cc1 |  | inconclusive: 39.8 µM [inhibitor, single point]
CN(C(=O)c1ccco1)c1nnc(C23CC4CC(CC(C4)C2)C3)s1 |  | inconclusive: 22.4 µM [inhibitor, partial curve]
O=C(c1ccco1)N1CCN(c2nc3ccccc3c(=O)n2-c2ccccc2)CC1 |  | inconclusive: 14.1 µM [inhibitor, partial curve]
O=C1N/C(=C\c2ccc(N3CCOCC3)c(F)c2)C(=O)N1Cc1ccccc1 |  | inconclusive: 0.501 µM [inhibitor, full curve]
Cc1cccc(NC(=S)NC(=O)/C=C/c2ccco2)n1 |  | inconclusive: 28.2 µM [inhibitor, single point]
COc1ccc(C(=O)NCC(=O)N/N=C/C(C)=C/c2ccco2)cc1OC |  | inconclusive: 35.5 µM [inhibitor, single point]

SMILES | activity, negative = inhibition | Potency
Cc1ccc(NC(=O)c2cc3c(s2)CCCC3)cc1S(=O)(=O)Nc1ccccc1Cl |  | inconclusive: 39.8 µM [inhibitor, single point]
CNS(=O)(=O)c1ccc(C)c(S(=O)(=O)NC)c1 |  | inactive
CCN(CC)CC(=O)Nc1ccc2c(c1)N(C(=O)CN(CC)CC)c1ccccc1CC2 |  | inactive
Cc1ccc(-c2cn3c(=O)cc(C)[nH]c3n2)cc1 |  | inconclusive: 31.6 µM [inhibitor, partial curve]
Cn1c(SCc2ccc(Cl)cc2)nnc1C1CC1 |  | active: 11.9 µM
COc1ncc2nc(C)c(=O)n(C3CC3)c2n1 |  | inconclusive: 35.5 µM [inhibitor, single point]
CCC1Sc2ccccc2N(CC(=O)NCCC2=CCCCC2)C1=O (stereo not drawn) |  | inconclusive: 39.8 µM [inhibitor, single point]
COc1ccc(CNC(=O)c2c(O)c3cccc4c3n(c2=O)CCC4)cc1 |  | inactive
Cc1ccc(/C=C/C(=O)N2CCN(c3ncccn3)CC2)o1 |  | active: 3.55 µM
CCCn1c(N2CCN(CC(=O)NCc3cccs3)CC2)nc2ccccc21 |  | inconclusive: 28.2 µM [inhibitor, single point]
COc1cccc(C2C(C(=O)Nc3nc4ccccc4s3)=C(C)NC3=C2C(=O)CC(C)(C)C3)c1OC (stereo not drawn) |  | inconclusive: 35.5 µM [inhibitor, single point]
CCc1ccc(O)c(N=Cc2ccccc2O)c1 |  | inconclusive: 31.6 µM [inhibitor, single point]
CCOc1cc2c(cc1OCC)C(C(=O)O)C(c1cc(OC)c(OC)c(OC)c1)N(C)C2=O (stereo not drawn) |  | inconclusive: 20 µM [inhibitor, single point]
CNC(=O)NC(=O)C(C)N1CCN(C/C=C/c2ccccc2)CC1 (stereo not drawn) |  | inactive
Cc1ccc(S(=O)(=O)N(C)C)cc1NC(=S)NCCc1ccccn1 |  | inconclusive: 28.2 µM [inhibitor, single point]
O=S(=O)(c1ccc(NC(=S)Nc2ccc(OC(F)F)cc2)cc1)N1CCOCC1 |  | inconclusive: 39.8 µM [inhibitor, single point]
COc1cccc(-c2cc(C(=O)NC3CCCC3)no2)c1 |  | inconclusive: 25.1 µM [inhibitor, partial curve]
O=C1NC2(Nc3ccccc31)C(=O)Nc1ccc(Br)cc12 (stereo not drawn) |  | inconclusive: 39.8 µM [inhibitor, single point]
COC(=O)CSc1cc(SCC(=O)OC)c(C#N)c(SCC(=O)OC)c1 |  | inconclusive: 25.1 µM [inhibitor, single point]
CC1=C(C#N)C(=O)NC(=O)/C1=C\c1ccc(-c2cc(C)c(C)cc2[N+](=O)[O-])o1 |  | inconclusive: 25.1 µM [inhibitor, single point]
CC(=O)C(Sc1nc(N2CCOCC2)nc(N2CCOCC2)n1)C(=O)Nc1ccccc1 (stereo not drawn) |  | inactive
Cc1nc(-c2ccccc2)sc1C(=O)/C=C/c1ccc(Cl)cc1 |  | active: 3.16 µM
Cc1ccc(C)c(NC(=O)Cc2nc(CCl)cs2)c1 |  | inconclusive: 22.4 µM [inhibitor, single point]

SMILES | activity, negative = inhibition | Potency
O=S1(=O)N=C(Nc2nncs2)c2ccccc21 |  | inconclusive: 39.8 µM [inhibitor, single point]
C=CCn1cc(C(=O)OC)c(=O)c2cc(S(=O)(=O)N(CC)CC)ccc21 |  | inconclusive: 31.6 µM [inhibitor, single point]
CCOC(=O)Nc1cccc2ccccc12 |  | inconclusive: 31.6 µM [inhibitor, single point]
CCCCSc1nc(O)c(Cc2ccccc2)c(=O)[nH]1 |  | inconclusive: 39.8 µM [inhibitor, single point]
O=C(O)C[C@H](Nc1ccccc1)C(=O)O | inactive: -1.74% [at 13.5 µM] | 
CCOC(=O)c1snc(C(=O)NC2CCCCC2)c1N |  | inconclusive: 39.8 µM [inhibitor, single point]
COc1cccc2c(=O)c(SC(F)(F)C(F)C(F)(F)F)c(C)[nH]c12 (stereo not drawn) |  | inconclusive: 25.1 µM [inhibitor, partial curve]
O=C(N/N=C/c1cccnc1)c1cc(-c2cccs2)nc2ccccc12 |  | inconclusive: 31.6 µM [inhibitor, single point]
COC(=O)c1cc(C(=O)c2ccccc2)n2c(=O)/c(=C\N(C)C)sc12 |  | active: 3.16 µM
Cc1nc(Cl)c(Cl)n1CCOc1ccccc1 |  | inconclusive: 39.8 µM [inhibitor, single point]
O=C(CCCN1C(=O)/C(=C\c2ccco2)SC1=S)Nc1cccc2ccccc12 |  | inconclusive: 28.2 µM [inhibitor, single point]
CC(=O)c1cccc(S(=O)(=O)N2CCC(C(=O)O)CC2)c1 |  | inconclusive: 35.5 µM [inhibitor, single point]
COc1ccc(Br)cc1CNC(=O)CCc1nc(-c2ccccc2F)no1 |  | inconclusive: 31.6 µM [inhibitor, single point]
O=c1c2sccc2nc(SCc2ccc([N+](=O)[O-])cc2)n1Cc1ccccn1 |  | inactive
O=C1c2ccccc2-c2ccc(N(Cc3ccc(Br)cc3)Cc3ccc(Br)cc3)cc21 | inactive: 0.668% [at 13.5 µM] | 
O=C(COc1cccnc1[N+](=O)[O-])NCCc1ccccc1 |  | inactive
Nc1nnc(C(c2ccccc2)c2ccccc2)s1 |  | inconclusive: 17.8 µM [inhibitor, partial curve]
Cc1cc(C)c2c3c(sc2n1)C1(CCSCC1)C(C#N)=C(N)O3 |  | active: 25.1 µM
Cc1cc(N2C3CCC2CC(O)(c2ccc(F)cc2)C3)nc(-c2ccccc2)n1 (stereo not drawn) |  | inconclusive: 17.8 µM [inhibitor, single point]
COc1ccc(COCC(CC(C)C)N2CCN(C(=O)c3cccc(C(F)(F)F)c3)CCC2=O)cc1 (stereo not drawn) |  | inconclusive: 22.4 µM [inhibitor, single point]
COc1ccc(OC)c(-n2cnc3cc(C(=O)NCCCN4CCOCC4)ccc32)c1 |  | inactive
O=C(O)CCc1nn2c3ccccc3n(CCO)c2nc1=O |  | inconclusive: 25.1 µM [inhibitor, single point]
